Laboratory results as given in PubChem BioAssay AID330 (DTP/NCI, 2004).
Toxic doses and inconclusive results are not listed. Some entries of the source have several records that differ or are many. They are shown here; other results are not. There may be further records. The values listed for one entry differ, and nothing given here explains why; some may be repeats, others may stem from another dose, organism or construct than stated.

System: P388 leukemia ip, CD2F1 mice, survival T/C
Test: NCI In Vivo Anticancer Drug Screen. Data for tumor model P388 Leukemia (intraperitoneal) in CD2F1 (CDF1) mice
Conditions: endpoint: median survival time, higher = longer survival

## CCC1(O)CC2CN(CCc3c([nH]c4ccccc34)C(C(=O)OC)(c3cc4c(cc3OC)N(C)C3C(O)(C(=O)NCCSSCCNC(=O)C5(O)C(O)C6(CC)C=CCN7CCC8(c9cc(C%10(C(=O)OC)CC%11CN(CCc%12c%10[nH]c%10ccccc%12%10)CC(O)(CC)C%11)c(OC)cc9N(C)C58)C76)C(O)C5(CC)C=CCN6CCC43C65)C2)C1 (configuration not stated)
dose: 1.5 mg/kg/injection, schedule: Q04DX003 (ip), vehicle: saline
  T/C: 112 % of control and 186 % of control

## Nc1nc(N)c2cc(N3CCCC3c3ccc(Cl)cc3)ccc2n1 (configuration not stated)
dose: 6.25 mg/kg/injection, schedule: Q01DX009 (ip), vehicle: Klucel (hydroxypropylcellulose) (HPC)
  T/C: 115 % of control, 121 % of control, 162 % of control

## COc1cc([C@@H]2c3cc4c(cc3[C@@H](OC3OC5COC(C)OC5C(O)C3O)[C@H]3COC(=O)[C@H]23)OCO4)cc(OC)c1O (some centres not stated)
dose: 8.0 mg/kg/injection, schedule: Q01DX009 (ip), vehicle: saline
  T/C: 91 % of control and 446 % of control

## S=P(N1CC1)(N1CC1)N1CC1
dose: 6.0 mg/kg/injection, schedule: Q01DX009 (ip), vehicle: saline
  T/C: 116 % of control and 187 % of control

## COc1c(O)c2c(c3cc(C(=O)N4CCc5c4c(O)c(OC)c4[nH]c(C(=O)N6CC7CC78C6=CC(=O)c6[nH]cc(C)c68)cc54)[nH]c13)CCN2C(N)=O (configuration not stated)
dose: 0.06 mg/kg/injection, schedule: Q04DX003 (ip), vehicle: DMSO
  T/C: 118 % of control and 164 % of control

## N=C(N)c1ccc(Nc2ccc(-c3cc4ccc(C(=N)N)cc4[nH]3)cc2)cc1
dose: 15.0 mg/kg/injection, schedule: Q01DX005 (ip), vehicle: Klucel (hydroxypropylcellulose) (HPC)
  T/C: 116 % of control and 193 % of control

## COc1cccc2c1C(=O)c1c(O)c3c(c(O)c1C2=O)C[C@@](O)(C(=O)CO)C[C@@H]3OC1CC(N2CCOCC2C#N)C(O)C(C)O1 (some centres not stated)
dose: 37.5 micrograms/kg/injection, schedule: Q04DX003 (ip), vehicle: water
  T/C: 108 % of control and 188 % of control
